# Measured values as given in PubChem BioAssay AID1347165 (National Center for Advancing Translational Sciences (NCATS), 2019).
# Values joined by “and” are separate entries in the source; they are usually repeats but may differ in a detail not shown here. Equal values may be shown once. The whole screen tested about 220,000 compounds, of which about 5,700 (2.6%) were called active. The shares of active, inactive and inconclusive entries below differ from those in the screen. Calls come from the whole dose curve; as a rule, active = well fitted inhibition curve with a large enough effect; inconclusive = small, poorly fitted or top-dose-only effect; inactive = no such curve, though single readings can be large or run the other way. Potencies of inconclusive entries are doubtful fits and often do not repeat.
# Biological target: Lysine-specific demethylase 5B (Homo sapiens) (UniProt Q9UGL1)
# UniProt Q9UGL1, sequence (Q9UGL1 whole entry, looked up): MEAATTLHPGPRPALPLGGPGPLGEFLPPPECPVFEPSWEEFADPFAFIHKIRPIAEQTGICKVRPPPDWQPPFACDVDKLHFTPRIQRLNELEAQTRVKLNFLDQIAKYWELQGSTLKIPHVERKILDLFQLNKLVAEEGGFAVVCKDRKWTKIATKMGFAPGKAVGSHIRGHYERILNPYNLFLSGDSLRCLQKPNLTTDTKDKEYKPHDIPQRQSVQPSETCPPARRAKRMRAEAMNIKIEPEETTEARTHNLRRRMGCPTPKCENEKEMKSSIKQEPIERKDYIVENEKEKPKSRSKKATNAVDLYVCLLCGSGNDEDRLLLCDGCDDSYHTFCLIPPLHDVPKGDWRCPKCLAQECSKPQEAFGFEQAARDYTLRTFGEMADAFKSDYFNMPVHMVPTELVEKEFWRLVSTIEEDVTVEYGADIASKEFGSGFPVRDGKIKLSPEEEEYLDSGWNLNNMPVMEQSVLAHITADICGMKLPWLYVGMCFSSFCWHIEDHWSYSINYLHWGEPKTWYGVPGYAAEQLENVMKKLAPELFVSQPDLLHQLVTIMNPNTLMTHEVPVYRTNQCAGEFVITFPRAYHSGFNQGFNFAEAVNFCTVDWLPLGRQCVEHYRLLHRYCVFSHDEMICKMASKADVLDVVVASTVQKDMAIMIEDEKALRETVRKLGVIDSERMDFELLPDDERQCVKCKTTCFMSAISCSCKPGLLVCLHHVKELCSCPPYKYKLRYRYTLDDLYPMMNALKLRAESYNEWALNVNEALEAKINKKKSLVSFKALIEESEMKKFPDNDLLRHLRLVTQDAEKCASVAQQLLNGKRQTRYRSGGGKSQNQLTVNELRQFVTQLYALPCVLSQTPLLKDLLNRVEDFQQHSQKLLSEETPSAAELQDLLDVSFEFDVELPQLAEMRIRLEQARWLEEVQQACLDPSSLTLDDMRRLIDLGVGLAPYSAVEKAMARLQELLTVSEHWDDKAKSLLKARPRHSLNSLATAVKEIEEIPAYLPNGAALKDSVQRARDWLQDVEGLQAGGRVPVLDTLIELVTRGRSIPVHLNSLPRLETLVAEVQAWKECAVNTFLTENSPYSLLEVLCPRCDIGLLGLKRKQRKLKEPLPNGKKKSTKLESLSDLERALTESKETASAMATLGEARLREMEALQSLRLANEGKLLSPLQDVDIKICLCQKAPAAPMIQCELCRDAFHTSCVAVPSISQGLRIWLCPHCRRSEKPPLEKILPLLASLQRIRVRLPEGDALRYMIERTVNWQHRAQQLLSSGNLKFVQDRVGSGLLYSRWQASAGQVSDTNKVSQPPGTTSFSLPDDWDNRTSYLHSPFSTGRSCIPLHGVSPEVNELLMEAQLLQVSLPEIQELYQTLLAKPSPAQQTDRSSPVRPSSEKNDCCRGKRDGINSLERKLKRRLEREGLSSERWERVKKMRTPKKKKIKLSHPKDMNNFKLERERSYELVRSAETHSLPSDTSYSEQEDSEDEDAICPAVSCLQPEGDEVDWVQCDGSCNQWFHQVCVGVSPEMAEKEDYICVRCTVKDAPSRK
# Assay: Primary screen for KDM5B Histone Demethylases FDH-coupled qHTS; note: nearly all actives have a fitted effect of over 70% in size
# Conditions: FDH-coupled NADH fluorescence (FDH is formaldehyde dehydrogenase); series mostly up to 57.7 µM
# How it was run: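 qHTS format, multiple compound concentrations. Buffer 50 mM HEPES pH 7.5/0.01% Tween-20; 200 nM KDM5BΔAP final; 10 min compound preincubation; substrate-mix levels 12.5 µM peptide, 25 µM α-KG, 0.25 mM NAD⁺; 30 min RT; ΔRFU.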
# Potency is the fitted concentration of half-maximal effect; tags give direction and shape of the fitted curve.
row,Structure (SMILES),Potency
1,CCc1noc(C(C)N2CCC(c3ccnn3CCO)CC2)n1 (stereo not drawn),inactive
2,CCCN(CC(F)(F)F)C(=O)CCCc1c[nH]c2ccccc12,"inconclusive: 31.6 µM [inhibitor, partial curve, poor fit]"
3,O=C(NC1CCCCCCC1)c1ccc(Br)cc1,inactive
4,COc1ccc(C(=O)N2CCC3(CC2)CC(c2nc(C)no2)N(C)C3)cc1F (stereo not drawn),inactive
5,CCN1CCN(c2ncc3c(n2)CCN(Cc2ccccc2C)C3)CC1,"inconclusive: 28.2 µM [inhibitor, single point]"
6,CC1(c2ccccc2)CCCN(C(=O)c2cnc(-c3cccnc3)nc2)C1 (stereo not drawn),inactive
7,NC(=O)c1ccccc1NCc1cccc2ccccc12,"inconclusive: 28.2 µM [inhibitor, partial curve, poor fit]"
8,O=c1cc(-c2ccncc2)oc2c(-c3ccccc3O)nccc12,inactive
9,CCOc1ccc(/C=C/C(=O)Nc2ccc3nc(N(CC)CC)cc(C)c3c2)cc1OC,"inconclusive: 25.1 µM [inhibitor, partial curve, poor fit]"
10,COCCOc1ncccc1-c1noc([C@@H]2CCCN2Cc2ccc(CO)o2)n1,"inconclusive: 35.5 µM [inhibitor, partial curve]"
11,Cc1cccc(CNC(=O)c2cc(NC(=O)C(C)C)cc3nc(C)ccc23)c1,active: 12.6 µM
12,Cc1cccc(N(C)S(=O)(=O)c2cc(-c3cnc(C4CC4)o3)ccc2C)c1,"inconclusive: 25.1 µM [inhibitor, partial curve, poor fit]"
13,COc1cccc(-c2cc(-c3cccnc3)c3cncn3c2)c1OC,active: 35.5 µM
14,CN1c2cc(C(=O)NCc3ccc(F)c(Cl)c3)ccc2C(=O)N2CCCCC21 (stereo not drawn),"inconclusive: 28.2 µM [inhibitor, partial curve, poor fit]"
15,COc1ccc(Nc2cc3c(cn2)NCCN(Cc2ccccc2)C3)cc1,"inconclusive: 31.6 µM [inhibitor, partial curve, poor fit]"
16,c1ccc(CN2CCNc3cc(NCc4cccnc4)ncc3C2)cc1,"inconclusive: 28.2 µM [inhibitor, partial curve, poor fit]"
17,CS(=O)(=O)N1CCC(CC(=O)N2CCCC2)C1 (stereo not drawn),inactive
18,CC(C)(CO)NC(=O)c1cc(-c2cccc3ccccc23)nc2ccccc12,"inconclusive: 35.5 µM [inhibitor, single point]"
19,CCCc1cc(NCc2cccnc2)n2ncc(-c3ccccc3)c2n1,"inconclusive: 20 µM [inhibitor, partial curve, poor fit]"
20,CCCCCn1nc(C(=O)Nc2ccc3oc(C)nc3c2)c2ccccc2c1=O,inactive
21,C[S+](=O)([O-])c1ccc(-c2nc(C(=O)NCc3ccc4c(c3)OCO4)n3ccccc23)cc1,active: 10 µM
22,CC(C)NC(=O)c1ccc(-c2ccc(F)cc2)o1,"inconclusive: 35.5 µM [inhibitor, single point]"

row,Structure (SMILES),Potency
1,O=C(O)CCC(=O)N1Cc2ccccc2CC2(CCN(Cc3ccc(O)cc3)C2)C1 (stereo not drawn),"inconclusive: 50.1 µM [inhibitor, partial curve]"
2,Cc1ccccc1NC(=O)C1CCN(c2nc3ccccc3o2)CC1,inactive
3,CCOC(=O)C(C)NC(=O)c1c2c(nc3ccccc13)C(=O)N(C1CCCCC1)C2 (stereo not drawn),"inconclusive: 35.5 µM [inhibitor, partial curve, poor fit]"
4,CC1=NOC(=O)/C1=C/c1ccc(O)c(Br)c1,"inconclusive: 28.2 µM [inhibitor, single point]"
5,CCc1c(C)sc2c1CCN(Cc1ccc(C#N)cc1)C2c1ccccc1 (stereo not drawn),"inconclusive: 25.1 µM [inhibitor, partial curve, poor fit]"
6,CCc1nnc(CN(C)C(=O)c2cnc(-c3ccc(C)cc3)[nH]c2=O)o1,"inconclusive: 3.55 µM [inhibitor, partial curve, poor fit]"
7,COc1ccc(-c2ccnc3nc(C4CC4)nn23)cc1,active: 15.8 µM
8,CCn1ccc(C(=O)N2CCc3c(nc(-c4ccc(OC)cc4)[nH]c3=O)C2)n1,inactive
9,O=C(NCc1nnc2ccc(-c3ccccc3)nn12)c1ccc(F)c(F)c1,active: 28.2 µM
10,CCCC(C)NC(=O)c1ccc2c(c1)NC(=O)CS2 (stereo not drawn),inactive
11,O=C1Nc2cnccc2C2(CCN([S+](=O)([O-])c3cccc(C(F)(F)F)c3)C2)O1 (stereo not drawn),"inconclusive: 22.4 µM [inhibitor, single point]"
12,COc1ccc(-c2nc3cc(NC(=O)COc4ccccc4C)ccc3o2)cc1,"inconclusive: 14.1 µM [inhibitor, partial curve, poor fit] and inconclusive: 1.78 µM [inhibitor, full curve, poor fit]"
13,O=C(NCC1CCCO1)N1CCc2c(nc3cc(-c4ccccc4Cl)[nH]n3c2=O)C1 (stereo not drawn),active: 20 µM
14,Cc1noc(C)c1CC(=O)N1CCCn2cc(-c3ccccc3F)nc21,inactive
15,CN1CC(=O)N(C2CCCNC2)Cc2c(NC3CCCCC3)ncnc21 (stereo not drawn),"inconclusive: 50.1 µM [inhibitor, partial curve, poor fit]"
16,CC(C)c1noc(-c2ccc(N(C)CC(O)c3ccccc3)nc2)n1 (stereo not drawn),"inconclusive: 31.6 µM [inhibitor, partial curve, poor fit]"
17,CCc1ccccc1NC(=O)CC1CCN(c2ccnc(OC)n2)CC1,"inconclusive: 5.01 µM [inhibitor, partial curve, poor fit]"
18,COc1cccc(CN2CCOC3(CCN(Cc4ccc5[nH]ccc5c4)CC3)C2=O)c1,"inconclusive: 35.5 µM [inhibitor, single point]"
19,CCc1ccccc1N1C(=O)[C@@H]2Cc3ccccc3CN2C1=O,"inconclusive: 35.5 µM [inhibitor, partial curve, poor fit]"
20,CSc1ccc(C2NN=C(c3ccccc3)S2)cc1 (stereo not drawn),"inconclusive: 28.2 µM [inhibitor, partial curve, poor fit]"
21,COc1ccc2c(c1)c1c(c(=O)n(CCc3ccccc3)c(=O)n1Cc1cccc(F)c1)n2C,"inconclusive: 15.8 µM [inhibitor, partial curve, poor fit]"
